Source: PubChem BioAssay (NCI)
Where “and” joins values, the source holds several entries; their conditions need not be identical. Equal values may be shown once.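 Compound exposure: 48 hours, 5 concentrations, 96-well plates. Abbreviation: GI50, concentration required for 50% inhibition of growth. TGI: concentration producing complete growth inhibition.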

Tested on: NCI-H322M lung
Assay: inhibition of tumour cell growth, NCI panel, 48 h

SMILES | TGI | GI50
Nc1cc2[nH]c(=O)c3cc(Cl)ccc3c2cc1Cl | 48.7 µM | –
CC[N+]1(C)CCC(O)(/C=C/c2ccccc2)C(C(=O)/C=C/c2ccccc2)C1 (stereo not given) | 33.6 µM | –
C[Si](C)(C)C1=C2C(=O)c3ccccc3C(=O)C2=C([Si](C)(C)C)[C@@H]2CCCC[C@H]12 | > 100 µM | –
Nc1nc(N)c2nn(-c3ccc(C(=O)O)cc3)nc2n1 | > 100 µM | –
COc1ccc(-c2nccn2-c2cc(OC)c(OC)c(OC)c2)cc1 | > 100 µM | 12.8 µM
N#C/C(=C/NC(=S)Nc1ccc(S(N)(=O)=O)cc1)C(N)=O | > 100 µM | –
CC(C)Oc1c(O)c2c3c(oc(=O)n3C=CC2c2ccccc2F)c1OC(C)C (stereo not given) | > 100 µM | –
C[N+](C)(C)CC(=O)N/N=C(\C(=O)Nc1ccc(Cl)cc1)C1C(=O)N(c2ccccc2)N=C1N (stereo not given) | > 100 µM | –
CCN(CC)CC(C(=O)Nc1c(C)cccc1C)/C(C)=N/NC(N)=S (stereo not given) | > 100 µM | –
CC(C)(C)OC(=O)N1CC(COS(C)(=O)=O)c2ccc(O)cc21 (stereo not given) | 7.85 µM | –
CCC1OC(=O)C(C)C(OC2CC(C)(O)C(O)C(C)O2)C(C)C(O)C(C)(O)CC(C)C(=O)C(C)C(O)C1C (stereo not given) | > 300 µM | –
CCOC(=O)C1(C/C=C\CBr)CCCCCCC1=O (stereo not given) | > 100 µM | –
O=C1c2cccc3cc4ccccc4c(c23)C(=O)N1CCCNCCNCCCN1C(=O)c2cccc3cc4ccccc4c(c23)C1=O | 1.62 µM | –
O=C1[C@@H]2C3C=CC([C@H]4C(=O)N(CO)C(=O)[C@@H]34)[C@@H]2C(=O)N1CO | > 100 µM | –
CCOc1c(OC)cc(CNNc2nccs2)cc1OC | > 100 µM | –
CC/C(=C(\c1ccccc1)c1ccc(OCC[N+](C)(C)C)cc1)c1ccccc1 | 32.5 µM | –
COc1ccc(N=Nc2ccc3oc(=O)c(C(=O)Nc4ccc(OC)cc4)cc3c2)cc1 | 80.6 µM | –
CN1C(=N\S(=O)(=O)c2ccc(Cl)cc2)/C(=N/N=P(c2ccccc2)(c2ccccc2)c2ccccc2)c2ccccc21 | > 100 µM | –
OB1OCc2ccccc21 | > 100 µM | –
Cc1cc(N2CCOCC2)nc(N(CCNc2ccnc3cc(Cl)ccc23)Cc2cccs2)n1 | 11.1 µM | 3.04 µM
O=C1NC(N2CCCC(CO)C2)=N/C1=C\c1ccc(O)cc1 (stereo not given) | > 100 µM | –
CC(C)CCC[C@@H](C)[C@H]1CC[C@H]2[C@@H]3CC=C4CC(OCCCCN(O)CCCSC5OC(CO)C(O)C(O)C5O)CC[C@]4(C)[C@H]3CC[C@]12C (stereo not given in full) | > 100 µM | –
Cc1ccc(S(=O)(=O)NC2(C=O)CCC(C(C)(C)C)CC2)cc1 (stereo not given) | > 100 µM | –
CCCC1C2=C(C(=O)OC2=O)C2C(CC)CC3=C(C(=O)OC3=O)C12 (stereo not given) | > 100 µM | –

SMILES | TGI | GI50
N#Cc1c(C#N)c(-c2ccco2)n(/N=C/c2ccco2)c1N | > 100 µM | –
CC(C)OP(=O)(OC(C)C)c1ncn(-c2ccc([N+](=O)[O-])cc2)n1 | > 100 µM | –
Cc1ccc(-n2cc(-c3ccc(Cl)cc3)c3c(NNC(=S)NCc4ccccc4)ncnc32)cc1 | > 100 µM | –
O=[N+]([O-])c1ccc(-c2ccc(C3=Nn4c(nnc4-c4ccc(Cl)cc4)SC3)o2)cc1 | > 100 µM | –
C[As](C)SCC(COC(=O)c1ccccc1)OC(=O)c1ccccc1 (stereo not given) | 5.12 µM | 0.847 µM
COc1cc(OC)cc(N(C)Cc2cnc3nc(N)nc(N)c3c2C)c1 | > 100 µM | –
COc1cccc2c(NNc3ccc(Cl)cc3)c3ccc([N+](=O)[O-])cc3nc12 | 50.8 µM | –
COC[C@@H](N=Cc1ccc(OC)cc1)C(C)C | > 100 µM | –
Cn1cc(C2=C(c3cn(CCCSC(=N)N)c4ccccc34)C(=O)NC2=O)c2ccccc21 | 14.7 µM | 3.27 µM
CCOC(=O)C1C(=O)C=C(c2cc(C)ccc2O)CC1c1cccc(Br)c1 (stereo not given) | 71.5 µM | –
CCCCc1ccc(C(N)=O)nc1 | > 100 µM | > 100 µM
COc1cccc2c1C(=N)c1c(O)c3c(c(O)c1C2=O)C[C@@](O)(C(C)=O)C[C@@H]3OC1CC(N)C(O)C(C)O1 (stereo not given in full) | 7.18 µM and 16.1 µM and 5.97 µM | –
O=C1CSC(c2ccc(Cl)cc2)N1c1ccc(-n2c(-c3ccccc3)nc3ccccc3c2=O)cc1 (stereo not given) | > 100 µM | –
N=C(N)c1ccc(-c2ccc(-c3ccc(Cl)cc3)s2)s1 | 3.11 µM | 1.63 µM
CC(=O)CC(=O)Nn1c(-c2cccs2)nc2ccc(I)cc2c1=O | > 100 µM | –
Cc1nn(C(=O)CC(=O)Nc2ccccc2Cl)c(C)c1N=Nc1ccccc1Cl | > 100 µM | –
CC(=O)OC12CCCCC1C1(CCCC1)NC2=O (stereo not given) | > 100 µM | –
COc1ccc(C2CC(c3ccc(OC)c(OC)c3)=NN2C(=O)c2cc(OC)c(OC)c(OC)c2)cc1 (stereo not given) | > 100 µM | > 21.5 µM
Cc1ccc(SCN2CCCCC2)cc1 (tested in a mixture with another compound) | 76.1 µM | –
NC(=O)NOCC1NC(=O)NC1=O (stereo not given) | > 100 µM | –
O=S(=O)(N1CCCCN(S(=O)(=O)C(F)(F)F)CCCN(S(=O)(=O)C(F)(F)F)CCCN(S(=O)(=O)C(F)(F)F)CCCCN(S(=O)(=O)C(F)(F)F)CCCN(S(=O)(=O)C(F)(F)F)CCC1)C(F)(F)F | > 100 µM | –
O=C1OC2C(O)COC2(OCc2c[nH]c3ccccc23)C1O (stereo not given) (tested in a mixture with another compound) | > 100 µM | –
CN(C)CCCn1c2c(c3ccncc3c1=O)C(=O)c1ccccc1-2 | 24.3 µM | 2.82 µM
Cn1c(N)cc(=O)nc1N | > 100 µM | –

SMILES | TGI | GI50
CCc1cccc(C(C)C)c1C1C(=O)C(=O)N(c2nc3ccccc3s2)C(=O)C1=O | > 100 µM | –
N#Cc1ccc(NC(=NCC(=O)O)Nc2ccc3ccccc3c2)cc1 | > 10 µM | –
N#Cc1c(-c2ccc(Cl)cc2)n([O-])c2ccccc2[n+]1=O | 47.6 µM | 24.1 µM
CCCCCCn1c(=N)n(CC(O)COc2cccc(C)c2)c2ccccc21 (stereo not given) | 15.4 µM | 4.42 µM
CCS(=O)(=O)Nc1ccc(Oc2ccc(F)cc2F)c(-c2cn(C)c(=O)c3[nH]ccc23)c1 | 18.4 µM | 0.0459 µM
Cc1cc(C)n(CN(Cn2nc(C)cc2C)c2ccc(N(Cn3nc(C)cc3C)Cn3nc(C)cc3C)cc2)n1 | 53.9 µM | –
CCO/C=N/C1=C(C#N)C(c2ccc(OC)c(OC)c2)c2c(-c3ccccc3)nn(-c3ccccc3)c2O1 (stereo not given) | 75.4 µM | –
CSc1nc(Cl)c2c(n1)Sc1ncnn1C2O (stereo not given) | 29.6 µM | –
Cc1ccc(-c2c(C#N)c(O)n(NS(=O)(=O)c3ccccc3)c(=O)c2C#N)cc1 | > 100 µM | –
C=CC(C)(C)c1cc([C@@H]2COc3cc(O)ccc3C2=O)c(O)c(OC)c1OC | 71.2 µM | –
N#CC1=C(N)Oc2c(ccc3ccccc23)C1c1ccccc1Cl (stereo not given) | 21.1 µM | 0.705 µM
COc1cc(C=Nc2ccc(Oc3ccc(Cl)cc3)c(Cl)c2)cc(OC)c1OC | 48.3 µM | –
Cc1cccc2ns[s+]c12 | > 100 µM | –
COc1nc(NC2OCC(OC(C)=O)C(OC(C)=O)C2OC(C)=O)c(N=C(C)C(C)=O)c(=O)n1C (stereo not given) | > 100 µM | –
CN1CCN(Cc2ccc(NC(=O)c3cncc(C#Cc4c(N)ncc5ccc(F)cc45)c3)cc2C(F)(F)F)CC1 | 7.49 µM | 1.32 µM
CC(C)(C)C(=O)C(C#N)C(=O)C(C)(C)C | > 100 µM | –
C[C@H]1C(=O)C2=C[C@H]1CCC(=O)[C@]1(C)CCCC(C)(C)[C@H]1C[C@H]2O | > 100 µM | –
O=C1/C(=C/c2ccc([N+](=O)[O-])s2)Oc2ccc(Cl)cc21 | 4.92 µM | 1.43 µM
C[N+](C)([O-])Cc1cccc(NC(=O)c2ccc(C(=O)Nc3cccc(C[N+](C)(C)[O-])c3)cc2)c1 | > 100 µM | –
N#Cc1ccccc1C#C/C=C\C#Cc1cnccn1 | > 90.9 µM | 36.9 µM
CCCCCCCCCCCCCCCCCc1nc(C#N)c(N)o1 | > 100 µM | –
NC(N)=NS(=O)(=O)c1ccc(NC(=O)c2c3ccccc3nc3ccccc23)cc1 | > 100 µM | –
C=CC(=O)N1CC[C@@H](Oc2nc(Nc3ccc(N4CCC(N5CCN(C)CC5)CC4)cc3)c(C(N)=O)nc2CC)C1 | > 100 µM | > 100 µM
C[N+]12C=CC=C1C(N1CCCC1)c1sc(-c3ccc(Cl)cc3)cc12 (stereo not given) | > 100 µM | –

SMILES | TGI | GI50
Cn1cnc2nc(Cl)nc(Cl)c21 | 47.1 µM | 9.25 µM
COc1ccc(C(=O)CC(Cl)=C(Cl)Cl)cc1 | > 100 µM | > 100 µM
CCCCCCCCCCCCOC1C(C(COC2OC(C(O)CO)C3OC(C)(C)OC23)OC(=O)Nc2ccc([N+](=O)[O-])cc2)OC2OC(C)(C)OC21 (stereo not given) | 19 µM | 6.01 µM
COC(=O)C1CCC2(CC1)NC(=O)NC2=O (stereo not given) | > 100 µM | –
CC1=C2CC3=C(C)C(=O)O[C@H]3C[C@@H](C)[C@@H]2CC1 | > 100 µM | –
O=C(NC(c1ccccc1)C(O)C(=O)OCc1ccc2c(c1)C(=O)c1ccccc1C2=O)c1ccccc1 (stereo not given) | > 79.9 µM | –
COc1cccc(C(=O)C(O)c2cccc(OC)c2OC)c1OC (stereo not given) | > 100 µM | –
C#Cc1cccc(NC(=O)Nc2cccc(NC(=O)CCl)c2)c1 | > 82.5 µM | > 82.5 µM
CC(C)(O)C1CC(=O)C(C)(C2C(O)CC3(C)C4CC=C5C(CCC(O)C5(C)C)C4(C)C(=O)CC23C)O1 (stereo not given) | > 100 µM | –
CCCCCCc1cc2cc(C(=O)Nc3cccc(C(F)(F)F)c3)c(=N)oc2cc1O | 9.27 µM | –
Cc1nc2cc(NC(=O)CN3CCN(CCN4C(=O)c5cccc6cccc(c56)C4=O)CC3)ccc2s1 | > 100 µM | 6.88 µM
COc1cc(NS(C)(=O)=O)ccc1N1Cc2cnc3ccc4[nH]ccc1c4c23 | > 100 µM | –
O=C(/C=C/CN1CCCCC1)Nc1cc2c(Nc3ccc(F)c(Cl)c3F)ncnc2cc1OCCOC(F)F | 1.56 µM | < 0.01 µM
COc1ccc(C2Oc3cc(OC)c(O)cc3[C@@H]2C)cc1 (stereo not given in full) | > 100 µM | –
CCC1(CC)C(=O)N(C(=O)c2ccc(Cl)cc2)N(C(=O)c2ccccc2Cl)C1=O | > 100 µM | –
CN1CCN(c2nc3c(c(=O)n(C)c(=O)n3C)n2C)CC1 | > 100 µM | –
COc1ccc(N2CCN(CC(=O)N3CCN(c4nnc(-c5ccc(Cl)cc5)c(-c5ccc(Cl)cc5)n4)CC3)CC2)cc1 | > 100 µM | > 100 µM
O=C1N[C@@H](c2c[nH]c3ccc(Br)cc23)C(=O)N[C@H]1c1c[nH]c2ccc(Br)cc12 | 26.1 µM | –
CCOc1ccccc1Nc1nc(C)c(C(=O)CC(=O)C(=O)Nc2ccccc2)s1 | > 100 µM | –
CC1CCCC2(O1)OC1CC(=O)OC1C1=C2C(=O)c2ccccc2C1=O (stereo not given) | 31.6 µM | –
COC(=O)c1ccc2[nH]c3c(c2c1)CC(=O)Nc1ccccc1-3 | > 100 µM | –
O=C(C(Cl)=C(Nc1ccccc1)Nc1ccccc1)C(Cl)Cl | 73.1 µM | –
O=c1[nH]/c(=C/c2ccc(OCc3ccccc3)cn2)c(=O)[nH]/c1=C/c1cccnc1 | > 100 µM | –
NCCN.O=N[O-].O=N[O-].O=N[O-].O=N[O-].[Co+3].[K+] | > 100 µM | > 100 µM
